The list shows a part of the results. The list includes weakly bound sequences.
target: T1, MBP-FoxP3dN (UniProt Q99JB6); assay: PD-seq (MBP pull-down with sequencing); conditions: 20 mM Tris-HCl pH 7.5, 100 mM NaCl, 1.5 mM MgCl2, 0.4 uM protein, 0.1 uM dsDNA library, 30 min, room temperature, amylose pull-down; high values mean tight binding; double strand, one strand shown
T1 sequence: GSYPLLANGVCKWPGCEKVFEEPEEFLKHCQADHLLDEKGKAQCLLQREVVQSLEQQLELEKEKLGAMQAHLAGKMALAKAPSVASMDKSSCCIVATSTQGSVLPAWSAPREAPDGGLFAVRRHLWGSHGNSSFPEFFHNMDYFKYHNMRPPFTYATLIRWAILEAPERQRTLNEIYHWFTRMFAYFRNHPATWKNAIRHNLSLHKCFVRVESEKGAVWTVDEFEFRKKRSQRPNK

Row | Sequence | binding signal (RPM ratio (pull-down/input))
1 | GATGATTGTTCTCCCAGCTGATGAATTCCAATAGTCGAGTAAACAAATTTTCCTAATCTTTCTGTTCAAGCGCCATCTAC | 0.404
2 | GATGATTGTTCTCCCAGCTGATGAATTATGTCCTTCGAGTAAACAAATTTTCCTAATCTTTCTGTTCAAGCGCCATCTAC | 1.41
3 | GATGATTGTTCTCCCAGCTGATGAATTAGTACCGTCGAGTAAACAAATTTTCCTAATCTTTCTGTTCAAGCGCCATCTAC | 0.654
4 | GATGATTGTTCTCCCAGCTGATGAATTAACATAATCGAGTAAACAAATTTTCCTAATCTTTCTGTTCAAGCGCCATCTAC | 0.409
5 | GATGATTGTTCTCCCAGCTGATGAATTTGTACGTTCGAGTAAACAAATTTTCCTAATCTTTCTGTTCAAGCGCCATCTAC | 2.29
6 | GATGATTGTTCTCCCAGCTGATGAATTACTGGCATCGAGTAAACAAATTTTCCTAATCTTTCTGTTCAAGCGCCATCTAC | 0.776
7 | GATGATTGTTCTCCCAGCTGATGAATTTCTCCCCTCGAGTAAACAAATTTTCCTAATCTTTCTGTTCAAGCGCCATCTAC | 0.246
8 | GATGATTGTTCTCCCAGCTGATGAATTTGGACTCTCGAGTAAACAAATTTTCCTAATCTTTCTGTTCAAGCGCCATCTAC | 1.69
9 | GATGATTGTTCTCCCAGCTGATGAATTCTCTACCTCGAGTAAACAAATTTTCCTAATCTTTCTGTTCAAGCGCCATCTAC | 0.185
10 | GATGATTGTTCTCCCAGCTGATGAATTAAGGGGGTCGAGTAAACAAATTTTCCTAATCTTTCTGTTCAAGCGCCATCTAC | 0.459
11 | GATGATTGTTCTCCCAGCTGATGAATTAGGGTAATCGAGTAAACAAATTTTCCTAATCTTTCTGTTCAAGCGCCATCTAC | 0.536
12 | GATGATTGTTCTCCCAGCTGATGAATTTAGTTTGTCGAGTAAACAAATTTTCCTAATCTTTCTGTTCAAGCGCCATCTAC | 5.36
13 | GATGATTGTTCTCCCAGCTGATGAATTGATATTATCGAGTAAACAAATTTTCCTAATCTTTCTGTTCAAGCGCCATCTAC | 1.09
14 | GATGATTGTTCTCCCAGCTGATGAATTTAATGAGTCGAGTAAACAAATTTTCCTAATCTTTCTGTTCAAGCGCCATCTAC | 0.567
15 | GATGATTGTTCTCCCAGCTGATGAATTAGCCCCGTCGAGTAAACAAATTTTCCTAATCTTTCTGTTCAAGCGCCATCTAC | 0.22
16 | GATGATTGTTCTCCCAGCTGATGAATTTTACCCATCGAGTAAACAAATTTTCCTAATCTTTCTGTTCAAGCGCCATCTAC | 0.29
17 | GATGATTGTTCTCCCAGCTGATGAATTCCGGGATTCGAGTAAACAAATTTTCCTAATCTTTCTGTTCAAGCGCCATCTAC | 0.303
18 | GATGATTGTTCTCCCAGCTGATGAATTCACTACTTCGAGTAAACAAATTTTCCTAATCTTTCTGTTCAAGCGCCATCTAC | 0.368
19 | GATGATTGTTCTCCCAGCTGATGAATTTGTCCTTTCGAGTAAACAAATTTTCCTAATCTTTCTGTTCAAGCGCCATCTAC | 2.94
20 | GATGATTGTTCTCCCAGCTGATGAATTATTATTCTCGAGTAAACAAATTTTCCTAATCTTTCTGTTCAAGCGCCATCTAC | 1.6
21 | GATGATTGTTCTCCCAGCTGATGAATTCAGACTGTCGAGTAAACAAATTTTCCTAATCTTTCTGTTCAAGCGCCATCTAC | 0.548

Row | Sequence | binding signal (RPM ratio (pull-down/input))
22 | GATGATTGTTCTCCCAGCTGATGAATTGCATAGGTCGAGTAAACAAATTTTCCTAATCTTTCTGTTCAAGCGCCATCTAC | 0.683
23 | GATGATTGTTCTCCCAGCTGATGAATTTATGTCTTCGAGTAAACAAATTTTCCTAATCTTTCTGTTCAAGCGCCATCTAC | 2.54
24 | GATGATTGTTCTCCCAGCTGATGAATTTATAGGGTCGAGTAAACAAATTTTCCTAATCTTTCTGTTCAAGCGCCATCTAC | 0.952
25 | GATGATTGTTCTCCCAGCTGATGAATTTGAAAAATCGAGTAAACAAATTTTCCTAATCTTTCTGTTCAAGCGCCATCTAC | 0.178
26 | GATGATTGTTCTCCCAGCTGATGAATTTACGTAGTCGAGTAAACAAATTTTCCTAATCTTTCTGTTCAAGCGCCATCTAC | 0.51
27 | GATGATTGTTCTCCCAGCTGATGAATTGTTCGTATCGAGTAAACAAATTTTCCTAATCTTTCTGTTCAAGCGCCATCTAC | 0.679
28 | GATGATTGTTCTCCCAGCTGATGAATTCTATCGTTCGAGTAAACAAATTTTCCTAATCTTTCTGTTCAAGCGCCATCTAC | 1.07
29 | GATGATTGTTCTCCCAGCTGATGAATTAACAGGCTCGAGTAAACAAATTTTCCTAATCTTTCTGTTCAAGCGCCATCTAC | 0.315
30 | GATGATTGTTCTCCCAGCTGATGAATTTGATTAATCGAGTAAACAAATTTTCCTAATCTTTCTGTTCAAGCGCCATCTAC | 0.828
31 | GATGATTGTTCTCCCAGCTGATGAATTTGAGAAATCGAGTAAACAAATTTTCCTAATCTTTCTGTTCAAGCGCCATCTAC | 0.306
32 | GATGATTGTTCTCCCAGCTGATGAATTGTGAGTATCGAGTAAACAAATTTTCCTAATCTTTCTGTTCAAGCGCCATCTAC | 2.08
33 | GATGATTGTTCTCCCAGCTGATGAATTTCCCAGGTCGAGTAAACAAATTTTCCTAATCTTTCTGTTCAAGCGCCATCTAC | 0.172
34 | GATGATTGTTCTCCCAGCTGATGAATTAAAACAGTCGAGTAAACAAATTTTCCTAATCTTTCTGTTCAAGCGCCATCTAC | 0.563
35 | GATGATTGTTCTCCCAGCTGATGAATTAGAGTGATCGAGTAAACAAATTTTCCTAATCTTTCTGTTCAAGCGCCATCTAC | 0.455
36 | GATGATTGTTCTCCCAGCTGATGAATTAAGACTGTCGAGTAAACAAATTTTCCTAATCTTTCTGTTCAAGCGCCATCTAC | 0.614
37 | GATGATTGTTCTCCCAGCTGATGAATTACTGTCTTCGAGTAAACAAATTTTCCTAATCTTTCTGTTCAAGCGCCATCTAC | 0.508
38 | GATGATTGTTCTCCCAGCTGATGAATTCCTGGACTCGAGTAAACAAATTTTCCTAATCTTTCTGTTCAAGCGCCATCTAC | 0.198
39 | GATGATTGTTCTCCCAGCTGATGAATTCTATATCTCGAGTAAACAAATTTTCCTAATCTTTCTGTTCAAGCGCCATCTAC | 0.709
40 | GATGATTGTTCTCCCAGCTGATGAATTAGGAACATCGAGTAAACAAATTTTCCTAATCTTTCTGTTCAAGCGCCATCTAC | 0.452
41 | GATGATTGTTCTCCCAGCTGATGAATTATTTGAGTCGAGTAAACAAATTTTCCTAATCTTTCTGTTCAAGCGCCATCTAC | 0.442
42 | GATGATTGTTCTCCCAGCTGATGAATTCCACCGCTCGAGTAAACAAATTTTCCTAATCTTTCTGTTCAAGCGCCATCTAC | 0.254

Row | Sequence | binding signal (RPM ratio (pull-down/input))
43 | GATGATTGTTCTCCCAGCTGATGAATTTACATTGTCGAGTAAACAAATTTTCCTAATCTTTCTGTTCAAGCGCCATCTAC | 0.765
44 | GATGATTGTTCTCCCAGCTGATGAATTTACGATGTCGAGTAAACAAATTTTCCTAATCTTTCTGTTCAAGCGCCATCTAC | 0.7
45 | GATGATTGTTCTCCCAGCTGATGAATTGGTCATATCGAGTAAACAAATTTTCCTAATCTTTCTGTTCAAGCGCCATCTAC | 0.575
46 | GATGATTGTTCTCCCAGCTGATGAATTGCGGACTTCGAGTAAACAAATTTTCCTAATCTTTCTGTTCAAGCGCCATCTAC | 0.827
47 | GATGATTGTTCTCCCAGCTGATGAATTGACTTAATCGAGTAAACAAATTTTCCTAATCTTTCTGTTCAAGCGCCATCTAC | 0.244
48 | GATGATTGTTCTCCCAGCTGATGAATTTCGTGAATCGAGTAAACAAATTTTCCTAATCTTTCTGTTCAAGCGCCATCTAC | 0.281
49 | GATGATTGTTCTCCCAGCTGATGAATTCGCAGTATCGAGTAAACAAATTTTCCTAATCTTTCTGTTCAAGCGCCATCTAC | 0.739
50 | GATGATTGTTCTCCCAGCTGATGAATTTGTACACTCGAGTAAACAAATTTTCCTAATCTTTCTGTTCAAGCGCCATCTAC | 2.75
51 | GATGATTGTTCTCCCAGCTGATGAATTGGATCTCTCGAGTAAACAAATTTTCCTAATCTTTCTGTTCAAGCGCCATCTAC | 0.289
52 | GATGATTGTTCTCCCAGCTGATGAATTGGGTGTGTCGAGTAAACAAATTTTCCTAATCTTTCTGTTCAAGCGCCATCTAC | 1.27
53 | GATGATTGTTCTCCCAGCTGATGAATTTGGCTTATCGAGTAAACAAATTTTCCTAATCTTTCTGTTCAAGCGCCATCTAC | 1.72
54 | GATGATTGTTCTCCCAGCTGATGAATTTAGTATCTCGAGTAAACAAATTTTCCTAATCTTTCTGTTCAAGCGCCATCTAC | 3.87
55 | GATGATTGTTCTCCCAGCTGATGAATTAGAGCGCTCGAGTAAACAAATTTTCCTAATCTTTCTGTTCAAGCGCCATCTAC | 0.296
56 | GATGATTGTTCTCCCAGCTGATGAATTTGGCATATCGAGTAAACAAATTTTCCTAATCTTTCTGTTCAAGCGCCATCTAC | 2.56
57 | GATGATTGTTCTCCCAGCTGATGAATTAACTATCTCGAGTAAACAAATTTTCCTAATCTTTCTGTTCAAGCGCCATCTAC | 0.332
58 | GATGATTGTTCTCCCAGCTGATGAATTCGTAGCGTCGAGTAAACAAATTTTCCTAATCTTTCTGTTCAAGCGCCATCTAC | 0.988
59 | GATGATTGTTCTCCCAGCTGATGAATTTATTGTCTCGAGTAAACAAATTTTCCTAATCTTTCTGTTCAAGCGCCATCTAC | 6.72
60 | GATGATTGTTCTCCCAGCTGATGAATTAAATCTCTCGAGTAAACAAATTTTCCTAATCTTTCTGTTCAAGCGCCATCTAC | 0.29
61 | GATGATTGTTCTCCCAGCTGATGAATTGGCCCGGTCGAGTAAACAAATTTTCCTAATCTTTCTGTTCAAGCGCCATCTAC | 0.201
62 | GATGATTGTTCTCCCAGCTGATGAATTAATCTAATCGAGTAAACAAATTTTCCTAATCTTTCTGTTCAAGCGCCATCTAC | 0.272
63 | GATGATTGTTCTCCCAGCTGATGAATTAAGGCAATCGAGTAAACAAATTTTCCTAATCTTTCTGTTCAAGCGCCATCTAC | 2.02
